PubChem BioAssay AID1030 (National Center for Advancing Translational Sciences (NCATS), 2008)
Out of some 220,000 compounds screened, about 16,000 (7.3%) were called active. This list was built around the results that the source calls inconclusive (neither active nor inactive); the mix of calls is not that of the screen. Calls come from the whole dose curve; as a rule, active = well fitted inhibition curve with a large enough effect (not every such curve was filed as active); inconclusive = small, poorly fitted or top-dose-only effect, or another doubt; inactive = no such curve, though single readings can be large or run the other way. Potencies of inconclusive entries are doubtful fits and often do not repeat.

target: Aldehyde dehydrogenase 1A1 (Homo sapiens) (UniProt P00352); assay: qHTS Assay for Inhibitors of Aldehyde Dehydrogenase 1 (ALDH1A1); settings: Purified ALDH1A1, NADH fluorescence, propionaldehyde substrate; series mostly up to 75.3 µM;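 for activity, negative = inhibition: plate controls were no enzyme wells and a reference inhibitor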
Potency is the fitted concentration of half-maximal effect; tags give direction and shape of the fitted curve.

Sequence of UniProt P00352 (P00352 whole entry, looked up): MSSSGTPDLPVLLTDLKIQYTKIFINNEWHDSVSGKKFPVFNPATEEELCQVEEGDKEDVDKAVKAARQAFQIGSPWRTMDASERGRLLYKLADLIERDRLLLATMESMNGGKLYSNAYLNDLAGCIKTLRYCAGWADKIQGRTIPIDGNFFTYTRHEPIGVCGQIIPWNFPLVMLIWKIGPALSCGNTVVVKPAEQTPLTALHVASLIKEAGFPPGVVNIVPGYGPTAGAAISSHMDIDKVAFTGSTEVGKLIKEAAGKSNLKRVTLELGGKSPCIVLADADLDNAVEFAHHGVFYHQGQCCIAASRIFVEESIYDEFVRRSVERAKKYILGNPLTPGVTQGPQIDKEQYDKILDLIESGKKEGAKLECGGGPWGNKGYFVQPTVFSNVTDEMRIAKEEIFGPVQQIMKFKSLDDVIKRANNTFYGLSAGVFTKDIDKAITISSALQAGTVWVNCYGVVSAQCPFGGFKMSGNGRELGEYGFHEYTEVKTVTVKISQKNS

Potency, inconclusive:
COc1cccc(-c2cc(=O)c3cc(NC(C)=O)ccc3[nH]2)c1 28.2 µM [inhibitor, partial curve], Cc1ccc(NC(=S)Nc2c(C)n(C)n(-c3ccccc3)c2=O)cc1Cl 39.8 µM [inhibitor, single point], Cc1ccc(C(=O)Oc2ccccc2N2C(=O)C3CCC(C)CC3C2=O)cc1 (configuration not stated) 20 µM [inhibitor, single point], CC(Sc1nnnn1-c1ccccc1)C(=O)Nc1ccccc1-c1ccccc1 (configuration not stated) 22.4 µM [inhibitor, single point], O=C(CO/N=C/c1ccccc1O)NNC(=O)c1ccccc1Cl 39.8 µM [inhibitor, single point], Cc1cccc(NC(=O)CSc2nnc(CNC(=O)c3ccc(S(=O)(=O)N(C)C)cc3)n2-c2cccc(C)c2)c1 0.501 µM [inhibitor, full curve], O=S(=O)(NCCSc1ccc(Cl)cc1)c1ccc(F)cc1 39.8 µM [inhibitor, single point], Cc1cccc2cc(CN(Cc3cccnc3)C(=O)c3ccccc3F)c(Cl)nc12 35.5 µM [inhibitor, single point], O=C(COc1ccccc1Cl)NC(=S)Nc1cccc(NC(=O)c2ccccc2Cl)c1 7.08 µM [inhibitor, full curve], COc1ccc(-c2nc3ccncc3[nH]2)cc1OC 35.5 µM [inhibitor, single point], CCOP(=O)(OCC)c1nc(-c2cccc([N+](=O)[O-])c2)oc1N1CCCCC1 39.8 µM [inhibitor, single point], Cc1ccc(C(=O)N/C(=C\c2ccccc2)C(=O)OCc2ccccc2)cc1 14.1 µM [inhibitor, partial curve], CCSc1nc2c(sc3nc(C)cc(C)c32)c(=O)[nH]1 12.6 µM [inhibitor, partial curve], C=CCn1c(N)c(C(=O)OC(C)CC)c2nc3ccccc3nc21 (configuration not stated) 35.5 µM [inhibitor, partial curve], O=C(CCCSc1nc(-c2ccco2)cc(C(F)(F)F)n1)NCC1CCCO1 (configuration not stated) 28.2 µM [inhibitor, single point], Clc1ccc2[nH]c3c(NCC4CCCO4)ncnc3c2c1 (configuration not stated) 25.1 µM [inhibitor, partial curve], Nc1ccc2c(c1)C/C(=C/c1ccco1)C2=O 22.4 µM [inhibitor, partial curve], COc1ccc(OC)c(CNC(=O)C2CCN(S(=O)(=O)N3CCCC3)CC2)c1 28.2 µM [inhibitor, single point], O=C(O)CCn1c2c(c3ccccc31)CCCC2 39.8 µM [inhibitor, single point], COc1ccc(S(=O)(=O)NCc2ccccc2)cc1 28.2 µM [inhibitor, partial curve], O=C(c1ccco1)N(Cc1ccc([N+](=O)[O-])cc1)c1ccc(Cl)cc1 7.94 µM [inhibitor, partial curve], CCCCCCNC(=O)Cc1c(O)c2ccccc2[nH]c1=O 5.01 µM [inhibitor, full curve], N#Cc1ccc2ccn(CC(=O)NC3CCCCCC3)c2c1 39.8 µM [inhibitor, single point], Cc1nc2oc3ccc(F)cc3c(=O)c2cc1C(=O)NC(C)(C)C 39.8 µM [inhibitor, single point], CCOC(=O)c1oc2ccc(Br)cc2c1NC(=O)CN1CCN(C)CC1 39.8 µM [inhibitor, single point], Cn1c(=O)c2c(nc(N/N=C/c3ccc(OC(=O)c4ccco4)cc3)n2Cc2ccccc2Cl)n(C)c1=O 35.5 µM [inhibitor, single point], O=C(N/N=C/c1ccc(OCc2ccccc2)cc1)c1ccncc1 39.8 µM [inhibitor, single point], CCCN1CCC2(CC1)C(C#N)=C(N)Oc1c2sc2nc(C)cc(C)c12 39.8 µM [inhibitor, single point], COc1cccc(CC2(CO)CCCN(CC3=Cc4cc(Cl)ccc4OC3)C2)c1 (configuration not stated) 35.5 µM [inhibitor, single point], COc1ccc(-c2ccc(-c3noc(-c4ccccc4C)n3)c(OC)n2)cc1 3.16 µM [inhibitor, partial curve], CC(NC(=O)Nc1ccc([N+](=O)[O-])cc1)C(c1cccs1)N1CCCC1 (configuration not stated) 28.2 µM [inhibitor, single point], CCN1C(=O)C(O)(CC(=O)/C=C/C=C/c2ccccc2)c2ccccc21 (configuration not stated) 6.31 µM [inhibitor, partial curve], Cc1ccc(OCc2nc(-c3ccccn3)no2)c(Br)c1 28.2 µM [inhibitor, single point], COCCCn1c(SCC(=O)O)nc2cc(OC)c(OC)cc2c1=N 35.5 µM [inhibitor, single point], CC(=O)c1c(C)[nH]c(C(=O)NCc2ccccc2)c1C 44.7 µM [inhibitor, single point], Cc1onc(-c2ccccc2)c1C(=O)NC(=S)NNC(=O)c1cccnc1 39.8 µM [inhibitor, single point], Clc1ccc(-c2cc3ccccc3[nH]2)cc1 39.8 µM [inhibitor, single point], Cc1ccc(C)c(/C(O)=C2\C(=O)C(=O)N(CCCn3ccnc3)C2c2cccnc2)c1 (configuration not stated) 39.8 µM [inhibitor, single point], COc1ccc(Cl)cc1Nc1nc(-c2sc(NC(=O)c3ccco3)nc2C)cs1 22.4 µM [inhibitor, partial curve], Cc1nnc(Oc2ccccc2F)c2ccccc12 39.8 µM [inhibitor, single point], O=C(CCS(=O)(=O)c1cccc2nonc12)NC1CCCCCC1 39.8 µM [inhibitor, single point]

Potency, active:
COc1cc(OC)cc(C(=O)NC(=S)Nc2ccc3c4c(cccc24)CC3)c1 7.94 µM, NC(=O)c1c(NC(=O)CN2CCCC2)sc2c1CCCC2 17.8 µM, Cn1sc(=O)c2cc(S(=O)(=O)NC3CC3)ccc21 0.501 µM, CC(C)c1ccc(C2NC(=S)NC3=C2C(=O)CC(C)(C)C3)cc1 (configuration not stated) 2 µM, CCOC(=O)/C(C(=O)Nc1ccccc1Br)=C1/NC(C)(C)Cc2ccccc21 28.2 µM, CCOc1ccc(-n2c(N)c(C(=O)NCc3ccco3)sc2=S)cc1 22.4 µM, CC(=O)c1cc(NC(=O)c2cccc(C(F)(F)F)c2)c(=O)oc1C 3.55 µM, COc1cccc(C(=O)NCCOc2cc(C)cc(C)c2)c1 15.8 µM, Cc1nc(SCC(=O)c2ccccc2)n[nH]1 22.4 µM, Cn1c(=O)c2c(nc(N3CCCCCC3)n2CCSc2nc3ccccc3o2)n(C)c1=O 4.47 µM, CC(=C1C(=O)c2ccccc2C1=O)N1CCN(Cc2ccccc2)CC1 10 µM, O=C(O)CN1C(=O)/C(=C/c2ccc(SCc3ccccc3)o2)SC1=S 3.55 µM

Potency, inactive:
COc1ccc(OC)c(/C(C)=N/Nc2ccc(C(=O)O)cc2)c1, COc1ccc(CC(NC(C)=O)C(=O)N2CCN(C(=O)Nc3cccc(F)c3)CC2)cc1OC (configuration not stated), CCOc1cccc(-c2nnc(SCC(=O)Nc3cccc(OC)c3)n2N)c1, CC(=O)OCC(=O)[C@@]1(O)[C@H](OC(C)=O)C[C@H]2[C@@H]3CCC4=CC(=O)C=C[C@]4(C)[C@@]3(F)[C@@H](O)C[C@@]21C, O=C(N/N=C\c1ccc(Sc2ccccn2)o1)c1cccc(Br)c1, O=C(c1ccc(Cl)cc1[N+](=O)[O-])N1CCc2ccccc2C1, CC(=O)N1CCC(N(CCN2CCOCC2)C(=S)Nc2ccccc2C)CC1, COc1ccc(-c2c(C#N)c(C)nc3c2C(=O)c2ccccc2-3)cc1, CCOc1cc(C(=O)Nc2ccc3c(c2)OCO3)ccc1OCCOc1ccccc1Cl, COc1ccccc1N(CC(=O)N/N=C/c1ccc(OCC(=O)NCc2ccco2)cc1)S(=O)(=O)c1ccc(C)cc1, COc1ccc(S(=O)(=O)Cc2ccc(C(=O)N3CCN(c4ccccn4)CC3)o2)cc1, CCOc1cc(NC(=O)c2ccccn2)c(OCC)cc1NC(=O)CC(C)C, NNC(=O)c1cc(-c2ccco2)[nH]n1, COc1ccccc1OC[C@H](O)CO, CC(=O)N1CCC2(CCCN(C(c3ccccc3)c3ccccc3)C2)CC1, COC(=O)C1C(=O)C2=C(CC1C)Nc1ccccc1NC2c1cccs1 (configuration not stated), Cc1[nH]c(=O)[nH]c(=O)c1S(=O)(=O)N(CC(C)C)CC(C)C, O=[N+]([O-])c1cccc(/C=C/C=N/Nc2nc(N3CCCCC3)nc(N3CCCCC3)n2)c1

activity, negative = inhibition, inactive:
Oc1ccc2ccccc2c1/C=C\c1ccc2c(Br)cc(Br)c(O)c2n1 21.4% [at 13.5 µM]
